Measurements from PubChem BioAssay AID1963576 (National Center for Advancing Translational Sciences (NCATS), 2024).
Among all 46,000 compounds or so, about 60 (0.1%) were called active. Not shown: some 3% with an inconclusive outcome. Calls follow the shape of the dose curve; as a rule, active = well fitted inhibition curve with a large enough effect; inconclusive = small, poorly fitted or top-dose-only effect; inactive = no such curve, though single readings can be large or run the other way. This is one part of the list.

Assay: Primary qHTS assay for Inhibitors of ovarian cancer metastasis using an organotypic tumor microenvironment (TME) model. Also: nearly all actives have a fitted effect of over 65% in size.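 As to activity change, negative = inhibition: plate controls were DMSO wells for no effect and tomatine positive control wells for full effect.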
Conditions: SKOV3ip1-GFP adhesion/invasion on 3D omental model, fluorescence; series mostly up to 45.8 µM; activity change, negative = inhibition: at the top concentration
Procedure, shortened: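 A 3D layer of primary human omental fibroblasts, mesothelial cells, fibronectin and collagen I, grown 48 hr, received SKOV3ip1-GFP cells in serum-free medium plus compounds at 0.36-46 umol/L. After 2 hr RT and 16 hr 37 C, fixed adherent GFP cells were counted; normalized to DMSO and tomatine.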

Structure (SMILES) | activity change, negative = inhibition | outcome
Cc1ccc(CNC(=O)c2cc(S(=O)(=O)N3CCCC(C)C3)cn2C)cc1 (stereo not drawn) | inactive: 39.7% | –
Cc1sc(C2C(C#N)=C(N)N(c3cccc(Cl)c3)C3=C2C(=O)CCC3)cc1CN1CCOCC1 (stereo not drawn) | inactive: -7.74% | –
Cc1cc2c(n1-c1ccc(C(=O)NCC(C)c3ccccc3)cc1)CCCC2 (stereo not drawn) | inactive: -1.76% | –
Cc1cccc(Nc2nc(Nc3cccc(C)c3)nc(N3CCOCC3)n2)c1 | inactive: -15.2% | –
COc1cc(OC)c(NC(=O)CSC2=Nc3ccccc3N=C(c3ccc(F)cc3)C2)cc1Cl | – | inactive
CCOc1ccc(CNC(=O)c2ccc3c(c2)sc2nc(-c4ccc(OC)cc4)cn23)cc1 | inactive: -5.51% | –
Cc1ccc(-c2nn(-c3cccc([N+](=O)[O-])c3)c3c2cnc2ccc(F)cc23)cc1 | – | inactive
Cc1ccc(F)cc1NC(=O)CCc1c(C)nn(-c2ccc(N3CCCCC3)nn2)c1C | inactive: 9.71% | –
CC(CCO)Nc1nc2c(c(=O)n(C)c(=O)n2C)n1Cc1ccc(Br)cc1 (stereo not drawn) | inactive: -20% | –
Cc1ccc2oc(-c3ccc(C)c(NC(=O)c4ccc5c(c4)OCCO5)c3)nc2c1 | – | inactive
COc1ccc(NC(=O)Cn2c(=O)n(-c3cccc(C)c3)c(=O)c3c2c2cc(C)ccc2n3C)cc1OC | inactive: -28.2% | –
CCOc1cccc(C(=O)Nc2ccc3oc(-c4ccc(C(C)(C)C)cc4)nc3c2)c1 | inactive: 3.87% | –
CCN(CCCNC(=O)c1ccc(Sc2ccc(C)cc2)c(NC(C)=O)c1)c1cccc(C)c1 | inactive: 2.11% | –
COc1ccc(-n2c(=O)c3c(c4cc(OC)ccc4n3C)n(CC(=O)NCC3CCCO3)c2=O)cc1 (stereo not drawn) | – | inactive
CCc1nn2c(-c3ccco3)ccnc2c1-c1ccc(F)cc1 | – | inactive
COc1cc(Cl)c(NC(=O)c2cc(S(=O)(=O)N3CCOCC3)cn2C)c(OC)c1 | – | inactive
CCOC(=O)c1ccc(-c2ccc(/C=C(\C#N)C(=O)Nc3c(C)cccc3Cl)o2)cc1 | inactive: 2.19% | –
Cc1ccc(S(=O)(=O)Nc2ccc(-c3ccc(N4CCCCCC4)nn3)cc2)cc1C | – | inactive
C#CCSc1nc2sc3c(c2c(=O)n1-c1cccc(OC)c1)CCN(C(C)=O)C3 | inactive: 1.77% | –
CC(=O)c1c(C)oc2c(Cl)cc(NS(=O)(=O)c3cc(C)c(C)cc3C)cc12 | inactive: 4.68% | –
CCOC(=O)CNC(c1ccccc1)c1cc(Br)ccc1NC(=O)c1ccc(Cl)cc1 (stereo not drawn) | – | inactive
CCCOc1ccc(-c2nonc2NC(=O)COc2ccc(C)cc2)cc1OCCC | inactive: -29.9% | –
COCCn1c(SCC(=O)c2ccc(OC)cc2)nc2cc(C(=O)NC3CCCC3)ccc2c1=O | inactive: 27.9% | –
CC1CCN(c2ccc(-c3cccc(NS(=O)(=O)c4ccc(Cl)s4)c3)nn2)CC1 | inactive: 5.84% | –

Structure (SMILES) | activity change, negative = inhibition | outcome
CC(C)(C)NC(=O)Cn1cc(S(=O)(=O)Cc2ccc(F)cc2)c2ccccc21 | inactive: 3.68% | –
CCC(=O)Nc1ccc2nc(SCCOc3cccc(C)c3)sc2c1 | inactive: -14.1% | –
Cc1ccc(S(=O)(=O)c2nnn(CC(=O)Nc3ccccc3C)c2N)cc1C | inactive: 1.8% | –
CC(C)Cc1ccc(S(=O)(=O)Nc2ccc3[nH]c(=O)[nH]c3c2)cc1 | inactive: -23.5% | –
CCOc1ccc(OCC)c(NC(=O)c2cnc3c(-c4ccccc4)c(C)nn3c2C)c1 | inactive: -3.52% | –
O=C(NCc1ccccc1F)C(=O)NCC(c1cccs1)S(=O)(=O)c1cccs1 (stereo not drawn) | inactive: -3.43% | –
O=C(CCC1N=C2c3ccccc3N=C(SCc3ccccc3Cl)N2C1=O)NCc1cccs1 (stereo not drawn) | inactive: 8.31% | –
O=C(NCc1cccc(Cl)c1)c1ccc(CS(=O)Cc2ccccc2Cl)o1 (stereo not drawn) | – | inactive
COc1ccccc1OCC(=O)NCC1(N2CCOCC2)CCCCC1 | – | inactive
O=c1c2oc3ccccc3c2n(Cc2cccc(Cl)c2)c(=O)n1Cc1ccc2c(c1)OCO2 | inactive: -0.84% | –
Cc1ccc(-n2c(=O)c3c(c4cc(C)ccc4n3C)n(CC(=O)NCCC3=CCCCC3)c2=O)cc1 | inactive: 1.21% | –
COC(=O)c1cc2oc(C)cc2n1Cc1cccc(Cl)c1 | inactive: -11.3% | –
CCOc1ccccc1NC(=O)c1c(NCc2ccc(C)o2)sc2c1CCCCC2 | inactive: 0.671% | –
Cc1nc(C)c(CCNS(=O)(=O)c2ccc(C)c(C)c2)s1 | – | inactive
Cc1ccc(Cc2nc3ccccc3nc2SCC(=O)N2CCCCC2)cc1 | inactive: -12.9% | –
O=c1oc2c(F)cc(F)cc2cc1S(=O)(=O)c1ccc(F)cc1 | – | inactive
NC(=O)c1ncn([C@@H]2O[C@H](CO)[C@@H](O)[C@@H]2O)c1N | inactive: -15.4% | –
CCOc1ccc(CN2CCN(S(=O)(=O)c3ccc(Cl)cc3)CC2)cc1 | inactive: 1.88% | –
CCOc1ccc(N(CC)C(=O)c2cc3c(=O)oc4ccccc4c3s2)cc1 | – | inactive
Cc1cccc(NC(=O)C(=O)NCC(c2cccnc2)N2CCc3ccccc32)c1C (stereo not drawn) | – | inactive
CCOc1ccc(-c2nonc2NC(=O)c2oc3ccc(Cl)cc3c2C)cc1 | inactive: -31.7% | –
Cc1ccn2c(=O)c(C(=O)Nc3ccc(F)c(C(F)(F)F)c3)cnc2c1 | inactive: 1.83% | –
O=C(Cn1cc(S(=O)(=O)c2ccc(F)cc2)c(=O)c2cc3c(cc21)OCO3)Nc1ccccc1 | – | inactive
Cc1oc(-c2ccccc2F)nc1CN1CCC(C(=O)NCCc2ccc(Cl)cc2)CC1 | inactive: -9.4% | –
